Where “and” joins values, the source holds several entries; their conditions need not be identical. Equal entries are not always repeated. About 17,000 (4.4%) of roughly 390,000 compounds were called active. The shares of active, inactive and inconclusive entries below differ from those in the screen. Calls come from the whole dose curve; as a rule, active = well fitted inhibition curve with a large enough effect; inconclusive = small, poorly fitted or top-dose-only effect; inactive = no such curve, though single readings can be large or run the other way. A potency beside an inconclusive call is a rough fit, not a confirmed value. A structure can be active in one record and inactive in another.
biological target: Lysine-specific demethylase 4A (Homo sapiens) (UniProt O75164); assay: qHTS Assay for Inhibitors of JMJD2A-Tudor Domain; details: AlphaScreen JMJD2A-Tudor / H3K4me3 peptide binding; activity change, negative = inhibition: at 114 µM (top of the series); note: nearly all actives have a fitted effect of over 50% in size
Chain of UniProt O75164 (O75164 whole entry, looked up, the tested form may be a part): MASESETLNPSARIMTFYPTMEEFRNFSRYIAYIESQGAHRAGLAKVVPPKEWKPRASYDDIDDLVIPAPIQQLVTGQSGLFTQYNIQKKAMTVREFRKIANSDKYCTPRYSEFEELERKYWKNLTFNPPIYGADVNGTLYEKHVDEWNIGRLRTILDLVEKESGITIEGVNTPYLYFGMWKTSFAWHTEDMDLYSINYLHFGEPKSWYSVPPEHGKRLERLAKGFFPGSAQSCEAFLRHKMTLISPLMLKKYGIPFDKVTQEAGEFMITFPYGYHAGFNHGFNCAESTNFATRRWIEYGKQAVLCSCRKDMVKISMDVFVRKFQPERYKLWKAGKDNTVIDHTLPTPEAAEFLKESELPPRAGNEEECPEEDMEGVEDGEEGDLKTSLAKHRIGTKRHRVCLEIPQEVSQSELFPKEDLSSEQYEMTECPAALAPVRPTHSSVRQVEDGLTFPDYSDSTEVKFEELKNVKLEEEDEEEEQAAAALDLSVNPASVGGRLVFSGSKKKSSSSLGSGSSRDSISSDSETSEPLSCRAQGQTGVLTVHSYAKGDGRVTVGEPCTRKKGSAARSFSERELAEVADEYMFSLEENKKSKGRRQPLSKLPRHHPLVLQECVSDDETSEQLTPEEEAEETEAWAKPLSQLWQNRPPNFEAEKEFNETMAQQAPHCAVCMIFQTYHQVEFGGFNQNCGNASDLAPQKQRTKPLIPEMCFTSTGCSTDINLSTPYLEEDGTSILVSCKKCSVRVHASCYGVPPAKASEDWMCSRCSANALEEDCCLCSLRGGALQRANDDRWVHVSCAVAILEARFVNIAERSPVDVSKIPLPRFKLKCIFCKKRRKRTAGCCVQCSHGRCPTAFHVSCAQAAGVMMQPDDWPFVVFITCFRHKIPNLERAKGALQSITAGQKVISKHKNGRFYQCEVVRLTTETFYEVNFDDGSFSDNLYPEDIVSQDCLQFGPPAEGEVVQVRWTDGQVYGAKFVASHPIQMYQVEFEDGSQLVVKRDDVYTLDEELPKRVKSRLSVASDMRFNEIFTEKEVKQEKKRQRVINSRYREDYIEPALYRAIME
% is set by controls: 0 for no effect and ±100 for the full control effect; potency is the fitted concentration of half-maximal effect; tags give direction and shape of the fitted curve.

SMILES | activity change, negative = inhibition | Potency
O=C(NNC(=S)NC(=O)c1ccccc1)c1cccnc1 | inactive: -18.2% | 
COc1cc2c(cc1OC)CN(C(=O)c1cc(S(=O)(=O)N3CCOCC3)ccc1Cl)CC2 |  | inconclusive: 39.8 µM [inhibitor, partial curve]
Cc1cc2c(cc1C)CSC(c1c(O)ccc3ccccc13)SC2 | inactive: -34.5% | 
Oc1ccc(C2CNCCc3c2cc(O)c(O)c3Cl)cc1 (stereo unspecified) |  | active: 35.5 µM
CN(C)c1ccc(/C=N/NC(=O)C(O)c2ccc(Br)cc2)cc1 (stereo unspecified) |  | inconclusive: 35.5 µM [inhibitor, full curve]
O=C(CC(C(=O)O)c1ccc(F)cc1)c1ccc(Cl)cc1 (stereo unspecified) | inactive: -7.58% | 
Cn1nc(C(F)(F)F)c(C#N)c1N1CCN(c2ccccn2)CC1 |  | active: 50.1 µM
O=C1N[C@@H](c2ccccc2)COC(=O)[C@H](Cc2ccc(F)cc2)C/C=C\C[C@@H]1CC(=O)N(CCO)Cc1ccccc1 |  | inconclusive: 28.2 µM [inhibitor, single point]
Cc1ccc(/C=N/n2c(COc3ccccc3)n[nH]c2=S)cc1 |  | inconclusive: 50.1 µM [inhibitor, partial curve]
c1ccc(CN=C2NN=C(c3ccccc3)CS2)cc1 |  | inconclusive: 56.2 µM [inhibitor, partial curve]
CC(=O)N1c2ccc(S(=O)(=O)N(C)CC(=O)NC3CCCC3)cc2CC1C (stereo unspecified) | inactive: -9.77% | 
CCc1ccc(-c2nc(CN3CCCC(C(=O)NCCc4ccc(OC)c(OC)c4)C3)c(C)o2)cc1 (stereo unspecified) |  | inconclusive: 15.8 µM [inhibitor, full curve, poor fit]
COc1c(CC=C(C)C)cc(C2CC(=O)c3c(O)cc(O)cc3O2)cc1CC=C(C)C (stereo unspecified) |  | inconclusive: 50.1 µM [inhibitor, partial curve]
O=C(CN1C(=O)c2ccccc2C1=O)c1ccc(F)cc1 | inactive: -6.78% | 
Cc1c(/C(O)=C2\C(=O)C(=O)N(CCN(C)C)C2c2cccnc2)cnn1-c1ccccc1 (stereo unspecified) | inactive: -3.56% | 
COc1ccc(-c2[nH]c(-c3ccccc3)nc2SCC(=O)NC2CCCC2)cc1 |  | inconclusive: 39.8 µM [inhibitor, partial curve] and inconclusive: 63.1 µM [inhibitor, partial curve]
N#Cc1nc(Cc2cccc3ccccc23)oc1NCC1CCCO1 (stereo unspecified) |  | inconclusive: 56.2 µM [inhibitor, partial curve]
Oc1c(C(Nc2cccc(C(F)(F)F)c2)c2cccnc2)ccc2cccnc12 (stereo unspecified) |  | active: 56.2 µM
COc1ccc(S(=O)(=O)N(C)C(C)CCc2ccco2)cc1 (stereo unspecified) | inactive: -9.25% | 
O=C1/C(=C/c2cccs2)Cc2ccccc21 | inactive: 7.95% | 
CCN1C(=O)c2ccccc2Sc2ccc(NC(=O)Nc3ccc(Br)c(C)c3)cc21 | inactive: -21% | 
COc1ccccc1NC(=O)CN(c1ccccc1F)S(C)(=O)=O |  | inconclusive: 89.1 µM [inhibitor, single point]
CC(C)N(C(=O)CSc1nc2c([nH]1)c(=O)n(C)c(=O)n2C)c1ccccc1 | inactive: -10.6% | 
Oc1ccc(C=Nc2ccc(N3CCOCC3)cc2)c(O)c1 |  | active: 22.4 µM

SMILES | activity change, negative = inhibition | Potency
Cc1oc(-c2ccccc2F)nc1Cn1c(SCc2ccccc2F)nc2ccncc21 |  | inconclusive: 25.1 µM [inhibitor, full curve]
CC(/C=N/NC(=O)Cc1cccn1C)=C\c1ccccc1 |  | inconclusive: 50.1 µM [inhibitor, partial curve]
CCOc1cc(N2C(=O)CC3CS(=O)(=O)CC32)c(OCC)cc1NC(=O)c1ccccc1 (stereo unspecified) |  | inconclusive: 3.55 µM [inhibitor, single point]
Cc1ccc(C2c3cccn3CCN2S(=O)(=O)c2ccc([N+](=O)[O-])cc2)cc1 (stereo unspecified) |  | inconclusive: 22.4 µM [inhibitor, full curve]
O=C(CC1Oc2ccccc2NC1=O)NCCc1ccccc1 (stereo unspecified) |  | inconclusive: 100 µM [inhibitor, partial curve, poor fit]
O=C1c2ccccc2C(=O)N1CC#CCN1CCN(C(c2ccccc2)c2ccccc2)CC1 |  | inconclusive: 14.1 µM [inhibitor, full curve]
O=C(CSc1ccc2nnc(-c3cccnc3)n2n1)Nc1cccc(F)c1 | inactive: -14.4% | 
O=C(Nc1ccccc1)N(CCN1CCOCC1)Cc1cccc(Cl)c1 | inactive: -16.4% | 
COc1ccc(OC)c(/C=C2\SC(=S)N(NS(=O)(=O)c3ccccc3)C2=O)c1 |  | inconclusive: 25.1 µM [inhibitor, partial curve, poor fit]
C(=C\c1ccccc1)/CSc1nnc(-c2cnccn2)n1Cc1ccco1 |  | inconclusive: 79.4 µM [inhibitor, single point]
COc1ccc(C(=O)NC(=S)Nc2ccc(N3CCCC3)cc2)cc1 | inactive: -19% | 
COc1ccc(CN2C(=O)c3cccnc3C2O)cc1 (stereo unspecified) |  | inconclusive: 63.1 µM [inhibitor, partial curve, poor fit]
CC(=O)CSc1nnc(-c2ccc(S(=O)(=O)N3CCCC3)cc2)n1C | inactive: -12.4% | 
COc1ccccc1CNC(=O)c1ccc(-c2ccccc2C(F)(F)F)o1 | inactive: 19% | 
COC(=O)c1cc(C(=O)OC)cc(-n2c(C)cc(C=O)c2C)c1 | inactive: -14.9% [at 57.1 µM] | 
COc1ccc2c(c1)[nH]c1c(=O)n(CCc3cnc[nH]3)cnc12 |  | inconclusive: 50.1 µM [inhibitor, partial curve]
CC(=O)N1c2ccc(S(=O)(=O)NCCC(=O)NCc3ccc(N(C)C)cc3)cc2CC1C (stereo unspecified) |  | inconclusive: 17.8 µM [inhibitor, partial curve, poor fit]
O=C1N=C(N2CCN(c3ccccc3)CC2)S/C1=C/c1ccco1 |  | inconclusive: 50.1 µM [inhibitor, partial curve]
O=C(CN1CCCCCC1)Nc1ccc([N+](=O)[O-])cc1Br |  | inconclusive: 44.7 µM [inhibitor, partial curve]
Cc1ccc(C(=O)NC(=S)Nc2ccc(-c3ccc(CO)o3)cc2)cc1 |  | inconclusive: 39.8 µM [inhibitor, partial curve, poor fit]
O=C(Nc1c2c(nn1-c1ccccc1)CS(=O)(=O)C2)c1ccccc1Br | inactive: -2.78% | 
O=c1c(C=Nc2cccc(C(F)(F)F)c2)c[nH]n1-c1cccc(Cl)n1 |  | active: 39.8 µM
COc1cccc(C2c3[nH]c4ccccc4c3CCN2Cc2cnn(C)c2)c1 (stereo unspecified) |  | inconclusive: 56.2 µM [inhibitor, partial curve]
COc1ccccc1N=Nc1c(C)[nH]n(-c2ccccc2)c1=O |  | inconclusive: 2.82 µM [inhibitor, full curve]

SMILES | activity change, negative = inhibition | Potency
CCOC(=O)N1CCN(C(=O)c2noc3c2COc2ccccc2-3)CC1 | inactive: -22.6% | 
CC(=O)Nc1ccc(S(=O)(=O)N2CCN(c3cc(C)ccc3C)CC2)cc1 | inactive: -27.9% | 
[O-][n+]1cccc2c(Br)cc(Br)c(O)c21 | inactive: -27.1% | 
N#C/C(=C\c1ccc(-c2ccccc2[N+](=O)[O-])o1)C(=O)Nc1nc(-c2cccs2)cs1 |  | inconclusive: 39.8 µM [inhibitor, partial curve]
CCCCNCCOCCOc1ccc(Cl)cc1Br |  | active: 4.47 µM
CN(C)c1ccc(CNc2nc(-c3ccco3)nn2S(=O)(=O)c2ccc(Cl)cc2)cc1 |  | inconclusive: 11.2 µM [inhibitor, full curve]
O=C(/C=C/c1ccco1)Nc1cc(Cl)ccc1C(=O)O |  | inconclusive: 17.8 µM [inhibitor, partial curve]
CCc1cc(-c2nc(N)ncc2-c2ccc(Br)cc2)c(O)cc1OC |  | inconclusive: 50.1 µM [inhibitor, partial curve]
COc1cc(NC(=O)c2cccc(Cl)c2)c(OC)cc1NC(=O)CN1CCCCC1 |  | inconclusive: 14.1 µM [inhibitor, partial curve]
COCCCNC(=O)Cn1c(=O)n(-c2cccc(C)c2)c(=O)c2c3c(sc21)CN(C(C)=O)CC3 | inactive: -7.27% | 
COC(=O)c1cnc(Nc2cccc(C(F)(F)F)c2)c([N+](=O)[O-])c1 |  | inconclusive: 10 µM [inhibitor, full curve]
COC(=O)c1ccccc1NC(=O)CSc1nc2sc3c(c2c(=O)[nH]1)CCCC3 |  | active: 56.2 µM
CCOc1ccc(NC(=O)c2ccc(NC(=O)c3ccc(NC(N)=O)cc3)cc2)cc1 |  | inconclusive: 70.8 µM [inhibitor, partial curve, poor fit]
O=C(O)c1cc2ccc3ccccc3c2[nH]1 | inactive: -12.2% | 
COc1ccc(NC(=O)c2cc3ccccc3cc2O)cc1 |  | inconclusive: 56.2 µM [inhibitor, partial curve]
COc1cccc(CN(C)CC(O)COc2cc(Cl)ccc2Cl)c1 (stereo unspecified) |  | active: 6.31 µM
COc1ccc(-c2cc(C(F)(F)F)nc(S(=O)(=O)CCCC(=O)Nc3ccccc3C(F)(F)F)n2)cc1OC | inactive: -2.73% | 
COc1ccccc1CNc1nc(-c2ccco2)nn1C(=O)c1ccccc1[N+](=O)[O-] |  | inconclusive: 25.1 µM [inhibitor, partial curve]
Cc1cc2n(n1)SC(Nc1ccc(F)c(Cl)c1)N2 (stereo unspecified) |  | inconclusive: 20 µM [inhibitor, partial curve]
COCCNC(C(=O)Nc1ccc(C)cc1[N+](=O)[O-])c1ccccc1 (stereo unspecified) |  | inconclusive: 28.2 µM [inhibitor, full curve]
CCc1ccc[n+](-c2[nH]c(=O)sc2/C=N/NC([S-])=Nc2ccccc2)c1 |  | inconclusive: 56.2 µM [inhibitor, partial curve]
CC(NCCN(C)C)C1CCC2C3CCc4cc(O)ccc4C3CCC12C (stereo unspecified) |  | inconclusive: 50.1 µM [inhibitor, partial curve]
COc1ccc(N2CCN(CC(=O)N3c4ccccc4CC3C)CC2)cc1 (stereo unspecified) |  | active: 2.82 µM

Reference: PubChem BioAssay AID504339 (National Center for Advancing Translational Sciences (NCATS), 2011)
